In PubChem BioAssay AID1159614 (National Center for Advancing Translational Sciences (NCATS), 2016):
Screen size: about 45,000 compounds; about 65 (0.1%) were called active. The call rests on the fitted dose curve; in most records, active means well fitted activation curve with a large enough effect; inconclusive means small, poorly fitted or top-dose-only effect; inactive means no such curve, though single readings can be large or run the other way. The list shows a part of the results.

Each molecule was assayed against Galactocerebrosidase (Homo sapiens) (UniProt P54803) (assay: A Novel Cell-Based Assay to Identify Small Molecules for B -Galactocerebrosidase). Conditions: 145M-Twi-hGALC-G270D cells (Twitcher mouse brain line with human GALC G270D), HMU-beta-Gal fluorescence, 48 h; series mostly up to 57.5 µM; activation: at the top concentration.
Outline: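 Fluorogenic HMU-b-Gal hydrolysis (0.1 mM final, pH 5.2 citrate-phosphate with 1 mg/mL sodium taurocholate; carbonate stop buffer) measures mutant GALC activity after compound treatment of live 145M-Twi Twitcher brain cells stably carrying human GALC-G270D, with wild-type GALC line alongside; activation sought.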
Further: 0% is about no effect; nearly all actives have a fitted effect of over 65% in size.

UniProt P54803, sequence (P54803 whole entry, looked up): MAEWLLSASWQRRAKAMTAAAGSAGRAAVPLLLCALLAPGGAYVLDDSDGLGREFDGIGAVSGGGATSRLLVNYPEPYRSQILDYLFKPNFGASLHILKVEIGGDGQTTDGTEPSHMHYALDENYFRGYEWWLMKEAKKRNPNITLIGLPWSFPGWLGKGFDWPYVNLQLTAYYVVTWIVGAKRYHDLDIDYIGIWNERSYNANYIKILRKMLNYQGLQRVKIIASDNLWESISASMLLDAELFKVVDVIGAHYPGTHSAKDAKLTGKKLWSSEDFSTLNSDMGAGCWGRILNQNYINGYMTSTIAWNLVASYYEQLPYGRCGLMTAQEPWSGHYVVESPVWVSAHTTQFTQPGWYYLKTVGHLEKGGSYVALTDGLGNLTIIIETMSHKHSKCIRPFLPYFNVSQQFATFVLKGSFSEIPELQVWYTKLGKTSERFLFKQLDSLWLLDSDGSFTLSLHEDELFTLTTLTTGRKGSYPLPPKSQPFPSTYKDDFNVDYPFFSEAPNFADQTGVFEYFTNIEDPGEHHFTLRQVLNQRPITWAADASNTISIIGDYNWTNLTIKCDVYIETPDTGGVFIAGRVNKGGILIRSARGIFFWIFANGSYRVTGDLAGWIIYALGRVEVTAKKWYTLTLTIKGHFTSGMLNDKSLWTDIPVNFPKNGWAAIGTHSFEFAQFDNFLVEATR

activation, inactive:
O=C(COc1ccccc1)Nc1nnc(S(=O)(=O)Nc2ccccc2)s1 -10%
Cc1ccc(Cl)cc1N1CCN(S(=O)(=O)c2cn(C)c(C)n2)CC1 -21%
Cc1ccc(-c2nnc(Nc3cccc(Cl)c3)c3ccccc23)cc1S(=O)(=O)N1CCN(C)CC1 -8.79%
CCN(Cc1ccccc1)c1ncnc2c1cnn2-c1ccc(F)cc1 -10.7%
O=C1OCCN1/N=C/c1ccc([N+](=O)[O-])o1 -16.7%
CCOc1ccccc1NC(=O)Nc1nnc(N2CCCC(C)C2)s1 (centres undefined) -9.69%
O=C(c1ccc(Cl)cc1)N1CCN(CCc2ccncc2)CC1 -11.8%
CCOC(=O)N1CCN(C(=O)c2ccc3c(c2)N(Cc2ccccc2F)C(=O)c2ccccc2S3(=O)=O)CC1 -1.22%
CCOc1ccc(CNC(=O)C2CCN(C(=O)c3ccc(-n4ccc5ccccc54)s3)CC2)cc1 -18%
Cc1cccc(NC(=O)Cn2c(=O)n(CCCCCC(=O)NCc3ccccc3)c(=O)c3sccc32)c1 -8.93%
CCOc1ccc(Nc2cc(C(=O)NCc3ccccc3Cl)c3ccccc3n2)cc1 2.74%
CCOC(=O)c1cc2c(=O)n3ccccc3nc2n(C)c1=NC(=O)c1c(-c2c(F)cccc2Cl)noc1C -3.07%
O=C(Nc1ccc(Br)c(Cl)c1)c1ccc(C(=O)Nc2ccc(Br)c(Cl)c2)cc1 -9.78%
CCc1ccc(NC(=O)CSc2nc3c(c(=O)[nH]2)CN(Cc2ccc4c(c2)OCO4)CC3)cc1 -10.2%
O=C(CCCc1ccccc1)NC1CC(=O)N(c2cccc(F)c2)C1 (centres undefined) -14.9%
Cc1ccc(C)c(N2CCN(S(=O)(=O)c3c(C(=O)N4CCC(C)CC4)c(C)n(C)c3C)CC2)c1 -6.93%
O=C(COc1ccccc1)NCC(c1ccc(Cl)cc1)N1CCCCC1 (centres undefined) -29.4%
COc1ccc(-c2nc(C(=O)Nc3cccc(C(C)=O)c3)nn2-c2ccccc2Cl)cc1 -21.8%
COc1ccc(CNC(=O)CCc2nnc3n(C)c(=O)c4sccc4n23)cc1 2.32%
COc1ccccc1CNC(=O)C(=O)NCC(c1ccco1)S(=O)(=O)c1ccc(C)cc1 (centres undefined) -20%
COC(=O)C1=C(C)N(C(C)C)C(=O)C1(NC(=O)c1ccccc1OC)C(F)(F)F (centres undefined) -14.5%
NC(N)=NN=C(/C=C/c1ccc([N+](=O)[O-])o1)/C=C/c1ccc([N+](=O)[O-])o1 -9.72%
CCCCCn1c(CCCNC(=O)c2ccc(Cl)cc2)nc2ccccc21 -6.38%
CCOC(=O)[C@H](CCc1ccccc1)N[C@H]1CS[C@H](c2cccs2)CN(CC(=O)O)C1=O -9.75%
Cc1ccccc1CCNC(=O)c1ccc(Cn2c(=O)c3cccn3c3cccnc32)cc1 -26.3%
CCc1ccc(NC(=O)c2cc(S(=O)(=O)N3CCCC(C)C3)cn2C)cc1 (centres undefined) -5.48%
O=C(NCc1ccccc1Cl)c1ccccc1NC(=O)c1nsc2ccccc12 -22.7%
COc1cc(OC)c(NC(=O)c2cnn(-c3ccccc3)c2-n2cccc2)cc1Cl -13.5%
CCOc1cc(-c2nc(-c3ccc(-c4ccccc4)nc3OCC)no2)cc(OCC)c1OCC -10.6%
CCC(=O)N1CCc2cc(Br)cc(S(=O)(=O)Nc3ccccc3C(=O)OC)c21 -5.44%
COCCCNC(=O)c1cc2c(-c3cccc(OC)c3)nn(C)c2s1 -15.5%
O=C(CSc1nccn1Cc1ccc(Cl)cc1)Nc1nc2ccccc2s1 -10.8%
CN(C)c1ccc(C(CNS(=O)(=O)c2ccc(F)cc2F)N2CCOCC2)cc1 (centres undefined) -15.3%
CCc1ccc(CN(Cc2cn[nH]c2-c2ccc(OC)cc2)C(=O)Nc2ccc(Br)cc2)cc1 -5.82%
CCN(CC)C(=O)CSc1nc2cc3c(cc2c(=O)n1CCCC(=O)NCc1ccc(OC)cc1)OCO3 0.386%
Cc1ccc(CCNC(=O)CN(c2ccc(C(C)C)cc2)S(=O)(=O)c2c(C)nn(C)c2C)cc1 -14.4%
CCOC(=O)c1c(NC(=O)c2ccc(S(=O)(=O)N(CC)CC)cc2)sc2c1CCCCC2 -2.44%
O=C(Nc1cccc(C(F)(F)F)c1)Nc1ccc2snnc2c1 -33.5%
Cc1cc(S(=O)(=O)Nc2ccc(O)c(Sc3nc4ccccc4s3)c2)ccc1Cl -4.03%
Cc1ccc(C(=O)N2CCCCC2CCN2CCCCC2)cc1 (centres undefined) -10.3%
CCn1c(SCC(=O)Nc2c(C)cccc2C)nnc1-c1nonc1NC(C)=O -1.46%
O=C(NCCC1=CCCCC1)c1ccc2c(c1)N(Cc1ccccc1)C(=O)c1ccccc1S2=O (centres undefined) -1.6%
CN(C)c1nc(N(C)C)nc(N(C)C)n1 -17%
COc1cc(NS(=O)(=O)c2cc(Br)cc3c2N(C(=O)C2CC2)CC3)cc(OC)c1 -5.42%
COc1ccccc1N1CCN(C(=O)CSc2nc3ccccc3nc2Cc2ccc(C)cc2)CC1 -4.11%
COc1ccc(-c2csc(-c3c(N)c(C(=O)c4ccccc4)n4ccccc34)n2)cc1OC -5.88%
CCS(=O)(=O)c1cccc(C(=O)Nc2ccc(-c3nc4ccccc4s3)c(O)c2)c1 -17.3%
Cc1cccc(NC(=O)Cn2c(=O)c3cccn3c3ccccc32)c1C -11.9%
Cc1ccc(O)cc1 -17.3%
CC1CCN(C(=O)Cn2c(SCC(=O)Nc3ccc(F)cc3)nc3ccccc32)CC1 -17%
Cc1ccc(CN2CCN(C3CCN(S(=O)(=O)N(C)C)CC3)C(=O)C2=O)cc1 -11.8%
COc1ccc(OC)c(CNC(=O)CSc2c3c(nc4cc(Cl)ccc24)CCCC3)c1 -5.43%
CCN(CCCNC(=O)c1nn(-c2ccc(OC)c(Cl)c2)c(=O)c2c1c1ccccc1n2C)c1ccccc1 -7.35%
CC(C)NC(=O)C1CCN(C(=O)c2cnn(-c3ccccc3)c2-n2cccc2)CC1 -9.36%
Cc1nc2c(C(=O)NCCc3ccc(Cl)cc3)cnn2c(C)c1Cc1ccc(F)cc1 -2.61%
COc1ccc(N2C(N)=C(C#N)C(c3cc(CN4CCOCC4)cs3)C3=C2CCCC3=O)cc1 (centres undefined) -17%
Cc1ccc(NS(=O)(=O)c2ccc3c(c2)C(C(C)C)C(=O)N3)cc1C (centres undefined) -20.8%
CCN(Cc1ccccc1)C(=O)Cn1c(=O)n(-c2cccc(C)c2)c(=O)c2c1c1cc(OC)ccc1n2C 2.17%
CCOC(=O)C1=C(CN2CCN(C)CC2)NC(=O)NC1c1ccc(F)cc1 (centres undefined) -14.1%
CC(C)c1ccc(OCC(=O)NCC(c2ccc(Cl)cc2)N2CCOCC2)cc1 (centres undefined) -9.35%
CCCSc1nc2sc3c(c2c(=O)n1-c1ccc(C)c(Cl)c1)CCN(C(C)=O)C3 -16.5%
Cn1nc(C(=O)NCCc2ccc(Cl)cc2)c2c1-c1ccccc1SC2 -10.7%
CN(C(=O)c1cc2nc(-c3ccc4c(c3)OCO4)cc(C(F)(F)F)n2n1)c1ccc(OC(F)(F)F)cc1 -15.2%
COc1ccc(NS(=O)(=O)c2ccc(-n3cccn3)cc2)cc1OC -40%
COc1ccccc1N1CCN(C(=O)c2ccc(Nc3nc4ccccc4n4nnnc34)cc2)CC1 -9.22%
CCn1c(=O)n(CC)c2cc(N3CCCC3)c(NC(=O)Nc3cc(C)cc(C)c3)cc21 -14.4%
COc1ccc(S(=O)(=O)c2c(O)c(C)cc(NC(=O)c3ccccc3)c2C(C)C)cc1 -17.9%
O=C(Nc1ccccc1F)c1oc2ccccc2c1NC(=O)c1c(F)cccc1F -2.04%
Cc1cccn2c(=O)cc(COc3cccc(NC(=O)c4cccc(Cl)c4)c3)nc12 -5.66%
Cc1cccc(-c2nnc(SCC(=O)N3CCCCC3)o2)c1 -3.54%
CSc1nnc2n(-c3cccc(C)c3)c(=O)c3c4c(sc3n12)CCCC4 -17.1%
CCOc1ccc(-c2nnc(SCC(=O)Nc3cc(C)ccc3OC)o2)cc1 -16.4%
CC(C)c1ccc(NC(=O)Cn2c3ncccc3c(=O)n2-c2ccccc2)cc1 -6.15%
COc1cc(-c2nc(C(N)=O)c3c(n2)n(-c2cccc(C)c2)c(=O)n3C)cc(OC)c1OC -17.3%
CCn1c(CN2CCCCC2)nc2cc(NC(=O)c3cccc([N+](=O)[O-])c3)ccc21 -13.6%
Cc1c(C(=O)Nc2cccc(-c3nc4ccccc4s3)c2)oc2ccc(F)cc12 -4.82%
Cc1ccc(CCNC(=O)CSCc2nc(-c3ccc(C)cc3)oc2C)cc1 -12.4%
COC(=O)c1ccccc1NC(=O)c1ccc(=O)n(Cc2cccc(C)c2)c1 -1%
N#Cc1cccc(NC(=O)C2CCN(c3nc(-c4ccc(Cl)cc4)no3)CC2)c1 -10.1%
Cc1ccc(CNC(=O)c2nn(C)c3c2CSc2ccc(C)cc2-3)cc1 -20.6%
Cn1c(=O)oc2cc(S(=O)(=O)NC(Cc3ccccc3)C(=O)NCc3ccccc3Cl)ccc21 (centres undefined) 0.522%
CCc1ccc(C(=O)c2cn(CC(=O)Nc3ccc4c(c3)OCO4)c3ccc(F)cc3c2=O)cc1 -4.5%
COc1ccc(-c2n[nH]c3c2cnc2cc(OC)c(OC)cc23)cc1 -11.4%
CCOc1ccccc1CNC(=O)C1CCN(c2nc3ccccc3nc2C(F)(F)F)CC1 -12.6%
CCN(CC)S(=O)(=O)c1ccc2c(c1)c(=O)c(C(=O)N1CCN(c3cccc(Cl)c3)CC1)cn2C -15%
Cc1ccc(CSC2=Nc3ccccc3C3=NC(CC(=O)NCc4ccc5c(c4)OCO5)C(=O)N23)cc1 (centres undefined) -11%
Cc1cccc(C2N=C(N)Nc3nc4ccccc4n32)c1 (centres undefined) -11.1%
COc1cc(OC)c(NC(=O)c2ccc3c(c2)N(Cc2ccc(C)cc2)CCS3)cc1Cl -17.6%
O=C(Nc1ccc2nc(SCC(=O)N3CCCc4ccccc43)sc2c1)c1ccc(Cl)cc1 -15.3%
CCCS(=O)(=O)Nc1cc(-c2cn3ccc(C)cc3n2)ccc1C -6.37%
Cc1ccc(-n2ncc(C(=O)NC3CCN(Cc4ccccc4)CC3)c2C2CCN(C(=O)OC(C)(C)C)CC2)cc1C -15.3%
COc1ccc(CCCc2nnc(SCC(=O)Nc3ccc(C)cc3)o2)cc1C -10.3%
COc1ccc(C(=O)Nc2nc3n(n2)C(c2ccc(Cl)cc2)C=C(c2ccccc2)N3)cc1OC (centres undefined) -13.9%
Cc1ccc(C)c(CN2C(=O)c3ccccc3S(=O)c3ccc(C(=O)N4CCOCC4)cc32)c1 (centres undefined) 4.19%
